# Some of the results follow.
# System: PfAP2-HC AP2 domain (GST-tagged)
# Assay: gcPBM binding intensity (ln(normalized median fluorescence intensity)); higher = stronger DNA binding
# Method in brief: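 GST-tagged P. falciparum DNA-binding domains, expressed in E. coli (about 25 μg on average), were applied for 1 h to an Agilent 4 × 180k array of primer-extended double-stranded 36-bp intergenic genomic probes plus negative controls. The binding buffer was 1× PBS with 1% milk, 0.2 mg/ml BSA, 0.5% salmon testes DNA and 0.03% Triton X-100. Bound protein was detected with Alexa488 anti-GST antibody and scanned at 488 nm. Binding intensity is the highest Masliner-normalised natural-log median intensity across replicate spots of either probe orientation.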
row,Sequence,gcPBM binding intensity (ln)
1,TTTTTATTTATATTTCATTGAAGTTAAATTATTTTA [XGTACX_negctrl_site575],9.41
2,ATTAGTATATTTCTCTGTACTTACATTAAAATATAA [XGTACX_site2217],9.6
3,AATTTAATATTCATCTCTAAAGCTATAACAATTACT [CACACA_negctrl_site1079],9.57
4,TCCTTAAAATATGGTTGTACGTACATCCTAGGTGTT [XGTACX_site7068],9.55
5,AAAAAAAAGAAAAAAAAAAAAAAAAAAAAAAAAAAA [CACACA_negctrl_site489],8.91
6,CGCACACGCAGACACACACACACATATAAATAAATA [CACACA_site7101],10.8
7,GGTGAAATTATTTCTACATGCAGAAATAATTAATTA [TGCATGCA_site194],9.48
8,TTTTTTTTTTTGGCTAGTACATATGTATTTAAAATG [XGTACX_site7770],9.59
9,AATTTAATATAATGCACACATAAAAAAAAAATCAAA [CACACA_site1],9.85
10,AAATTATTTCTTTGCGCATGTAGCTTTTATACTATT [TGCATGCA_site819],10.3
11,ACATAAATAATAAAAACACACATATGTACCTATATA [CACACA_site6982],9.85
12,AATACATGCTAAAAACGTACACGTATAAAATTATAT [XGTACX_site3169],9.69
13,AAGAAAATATAAAATGCACACTATAAATTGTATATA [CACACA_site7928],9.78
14,AAAAAAAAAAAAAATTGTACATTAAATTAAAAGAAA [XGTACX_site8708],9.42
15,AAAAAAAAAAATACTTGTACTTATATAATATATTAT [XGTACX_site8333],9.69
16,TGTTGTTCCAATTTTTGTACATAAAACATATATATA [XGTACX_site5719],9.61
17,AATATTTATTTAATTTCACACAGGTCTTTTTTTTTT [CACACA_site5188],9.7
18,TTGTTCTTATTTCATTTTTATATGATATTTCATTAT [CACACA_negctrl_site1619],9.87
19,GAGAAAAGGAAATAACGTACACATATGCATATCCAA [XGTACX_site5858],9.7
20,GTGTTCTTGTTATACACACACATATATATATATATA [CACACA_site1032],10
21,TATTTATTGTGACACTTTTATTATTTTATGATAAAA [CACACA_negctrl_site37],9.59
22,TGAAAGAAGCATAAATGTACACACATATTTATATAT [XGTACX_site2645],9.86

row,Sequence,gcPBM binding intensity (ln)
1,GAGAGGTCAGTTCACAGTACCCAGAAACTCTACGAG [XGTACX_site2559],9.31
2,GTAATATTTTATAGTAGTACATATTTTTATTATTTT [XGTACX_site3333],9.64
3,ATATATATATATATATGTACATATTTTTGTTTGATG [XGTACX_site51],9.66
4,CAGATATTCATATAAACACACATACAAATTATGTAT [CACACA_site4258],9.78
5,TATATATATAATTAAGCATGCTAGAAACCTTTGAAA [TGCATGCA_site489],9.61
6,TACAATCTAAAATACACACGCACACCGAAAAAAAAA [CACACA_site3520],10.6
7,ATATATATATATATTGCACACACAATTATTATTATT [CACACA_site8721],9.93
8,TGAAGAATATTTTTCACACATATATATATATATATA [CACACA_site6080],9.45
9,GACAAACAATATGAATGTACATAAAAATATAACTAA [XGTACX_site1167],9.96
10,TGAATATATAAATATGCACACTTCTATTATAAATAA [CACACA_site5796],9.65
11,TAACATATAAGTGTGTGTACGTACTGCGTATAATAT [XGTACX_site8597],9.97
12,TTTTAACATATAAGTACACACATATAATCAATCATA [CACACA_site2325],9.77
13,ATAAACGTTTTTGAAAGTACATATCATTCATTTGAT [XGTACX_site200],9.56
14,ATATAATATTTATATGTACACACCTTAATCCTTAAA [CACACA_site3555],9.7
15,AAAAAAATTAATATGTCAGCACATATATACATACAT [GTGCAC_negctrl_site110],9.77
16,TATATATATAAAAAAGCACACATACATACATACATA [CACACA_site8196],10.2
17,CCTTATAAATACTGCACACATAAAATATATATTATC [CACACA_site2806],9.83
18,TTTTATCGTTTTTTTTTTTTTTTTTTTTTTTTTTTT [CACACA_negctrl_site1309],9.37
19,TTTGTTCATATGAAATGTACAAAAAAAAAAAAAAAA [XGTACX_site8849],9.06
20,ATGTAGAAGTAATGCACACATATGTATTTATATATA [CACACA_site5391],10.2
21,TCTTTTTTTACTTTCTTTTTTTTTTTTTTTTTTTTT [XGTACX_negctrl_site610],9.3
22,TGTTAATTAAAACATCATTAATATTATTAAAAATAC [XGTACX_negctrl_site509],9.36

# — the supplement of paper PMC11417369
